Laboratory results from PubChem BioAssay AID1345083 (National Center for Advancing Translational Sciences (NCATS), 2018).
Values joined by “and” are separate entries in the source; they are usually repeats but may differ in a detail not shown here. Equal values may be shown once. In all, about 94,000 compounds went through this assay and about 6,200 (6.6%) were called active. This list was built around the results that the source calls inconclusive (neither active nor inactive); the mix of calls is not that of the screen. Calls come from the whole dose curve; as a rule, active = well fitted inhibition curve with a large enough effect; inconclusive = small, poorly fitted or top-dose-only effect; inactive = flat fitted curve, though single readings scatter. Where the call is inconclusive, the potency comes from a doubtful curve fit.

assay: Cytotoxic Profiling in HEK 293 Cell Line of Diverse Libraries Using Quantitative High-Throughput Screening; conditions: HEK 293 viability, ATP luminescence (CellTiter-Glo), 48-72 h; activity change, negative = cytotoxicity: at 115 µM (top of the series) unless noted; series mostly up to 115 µM; note: nearly all actives have a fitted effect of over 60% in size
In short: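 ATP-coupled CellTiter-Glo luminescence served as viability read-out, recorded 10 min after reagent addition at room temperature. HEK 293 cells, 250 cells/well, had been incubated with pintool-transferred compound for 48 or 72 hr at 37 degree Celsius.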
% is set by controls: 0 for no effect and ±100 for the full control effect; potency is the fitted concentration of half-maximal effect; tags give direction and shape of the fitted curve.

| SMILES | Potency | activity change, negative = cytotoxicity | outcome |
| --- | --- | --- | --- |
| COc1ccccc1CCC(=O)N1c2ccccc2CC1c1nc(C2CC2)no1 (configuration not stated) | inconclusive: 35.5 µM [inhibitor, full curve] | – | – |
| O=C(C1CCC1)N1CCNc2cnc(Nc3ccccc3)nc2C1 | inconclusive: 100 µM [inhibitor, partial curve] | – | – |
| CC(C)CCNC(=O)CCC1CCCN(S(=O)(=O)c2ccc(F)cc2)C1 (configuration not stated) | inconclusive: 50.1 µM [inhibitor, partial curve, poor fit] | – | – |
| COCCN1C(=O)c2ccccc2C(C(=O)NC2CCCCCC2)C12CCCCC2 (configuration not stated) | inconclusive: 79.4 µM [inhibitor, partial curve, poor fit] | – | – |
| CCOc1cc(=O)n2c(c1C(=O)Nc1ccc(SC)cc1)CCCC2 | – | inactive: 2.44% | – |
| COc1ccc(-c2ccnc(N[C@H]3CO[C@H]4[C@@H]3OC[C@@H]4NS(=O)(=O)c3ccccc3C#N)n2)cc1 | inconclusive: 56.2 µM [inhibitor, partial curve, poor fit] | – | – |
| O=C(NCC1CN(Cc2cccc(O)c2)CC12CN(c1ccccc1)C2)c1ccccc1 (configuration not stated) | inconclusive: 56.2 µM [inhibitor, partial curve, poor fit] | – | – |
| CCOC(=O)c1oc2ccc(S(=O)(=O)N3CCC(c4noc(C5CC5)n4)C3)cc2c1C (configuration not stated) | inconclusive: 56.2 µM [inhibitor, partial curve, poor fit] | – | – |
| COc1ccc(CC2CN(Cc3cccc(-n4cccn4)c3)CCO2)cc1 (configuration not stated) | inconclusive: 50.1 µM [inhibitor, partial curve] | – | – |
| CN1C(=O)[C@@H]2C[C@@H](CN2C2CCCC2)Oc2ccccc21 | inconclusive: 200 µM [inhibitor, single point] | – | – |
| Cn1cc(CN2C[C@H](C(=O)Nc3ccn(C)n3)C[C@@H]2c2cccc(C(F)(F)F)c2)cn1 | inconclusive: 79.4 µM [inhibitor, partial curve] | – | – |
| COc1cc2c(cc1-c1nccn1-c1ccc(NC(C)=O)cc1)OCCO2 | inconclusive: 7.94 µM [inhibitor, full curve, poor fit] | – | – |
| COc1cccc(CNC(=O)Cn2c(-c3cccc(Cl)c3)nc(C)c(CCO)c2=O)c1 | active: 22.4 µM | – | – |
| O=C1Nc2ccccc2CC12CCN(Cc1ccc(F)cc1)C2 (configuration not stated) | active: 70.8 µM | – | – |
| Cc1ccc(C(=O)N2CCCC(C(=O)N3CCCC(c4nc5ncccc5[nH]4)C3)C2)cc1 (configuration not stated) | – | inactive: -8.66% | – |
| O=C(c1ccccc1)N1CC2(CCCCN2CC2CC2)Cc2ccccc21 (configuration not stated) | inconclusive: 79.4 µM [inhibitor, partial curve] | – | – |
| O=C(O)Cc1cccn1-c1ccc(Cl)cc1 | – | inactive: -3.8% | – |
| CCOc1ccccc1CN1C[C@@H]2C(=O)N(CCN3CCc4ccccc4C3)C(=O)[C@@H]2C1 | inconclusive: 89.1 µM [inhibitor, single point] | – | – |
| COCc1nc(C2CCCN(C(=O)Cc3ccccc3C)C2)no1 (configuration not stated) | – | inactive: -9.76% | – |
| CNC(=O)c1cc(C2CC2)nc2c1c(C1CCN(C(=O)c3ccccc3OC)CC1)nn2C | – | inactive: -1.88% | – |
| Cc1ccc(N2CC(c3noc(-c4cc5ccccc5[nH]4)n3)CC2=O)cc1 (configuration not stated) | inconclusive: 50.1 µM [inhibitor, partial curve, poor fit] | – | – |

| SMILES | Potency | activity change, negative = cytotoxicity | outcome |
| --- | --- | --- | --- |
| COc1ccc(CNC(=O)C[C@@H]2CCNC[C@@H]2Cc2cc(CN(C)Cc3ccccc3)on2)cc1 | active: 39.8 µM | – | – |
| O=C(c1ccccc1)N1CCCn2cc(-c3ccc4c(c3)OCO4)nc21 | inconclusive: 39.8 µM [inhibitor, full curve, poor fit] | – | – |
| NCCO[C@H]1C[C@@H](O)C12CCN(C(=O)c1ccc(=O)[nH]c1)CC2 | – | inactive: -8.35% | – |
| Cc1oc(-c2ccc3ccccc3c2)nc1CN1CCNC(=O)C1 | inconclusive: 39.8 µM [inhibitor, full curve, poor fit] | – | – |
| Cc1ccncc1C(=O)N1CCC(N2C(=O)C(OCC3CC3)C23CCOCC3)CC1 (configuration not stated) | – | inactive: -1.66% | – |
| CN1CCOc2c(C(=O)NCc3cnn(C)c3)cc(-c3cccnc3)cc21 | inconclusive: 100 µM [inhibitor, partial curve] | – | – |
| Cc1ccc2nc(CO[C@H]3CN(c4ccc(C#N)cn4)C[C@H]3F)[nH]c2c1 | – | inactive: 3.45% [at 172 µM] | – |
| CC(=O)NC1(C)CCN(Cc2ccccc2-c2cccc(C(C)=O)c2)C1 (configuration not stated) | inconclusive: 100 µM [inhibitor, partial curve, poor fit] | – | – |
| O=C(N1C[C@@H](CO)[C@H](c2nc(C3CC3)no2)C1)C1(c2ccccc2)CC1 | – | – | inactive |
| CCc1c(C)cc(C(=O)N[C@H]2CCOC[C@H]2C2CCOCC2)c(=O)n1C | – | – | inactive |
| Cc1ccc(-c2cc(C(=O)NCc3ccccc3F)c3cnn(C)c3n2)cc1 | – | inactive: -6.11% | – |
| O=C(Nc1ccc(F)cc1)N1CCN2C(=O)N(C3CCOCC3)C[C@H]2C1 | – | inactive: 3.02% [at 172 µM] | – |
| O=C(Cc1ccc(F)cc1)N1CCC2(CCC(=O)N(CC3CC3)CC2)CC1 | inconclusive: 17.8 µM [inhibitor, full curve] | – | – |
| COc1ccc(C(=O)N2CCCC(c3nc(-c4ccccc4)no3)CCNC(=O)CC2)c(OC)n1 (configuration not stated) | – | inactive: -21.1% | – |
| Cc1ccccc1C(=O)N1CCN(C(=O)c2nnn3c2COC(c2ccc(Cl)cc2)C3)CC1 (configuration not stated) | inconclusive: 39.8 µM [inhibitor, partial curve, poor fit] | – | – |
| Cc1ccc(C(=O)N2CCN(c3cc(C(F)(F)F)ncn3)CC2)c(C)c1 | inconclusive: 50.1 µM [inhibitor, partial curve, poor fit] | – | – |
| COCCNC(=O)c1nc(-c2cc(Cl)cc(Cl)c2)c2ccccn12 | inconclusive: 89.1 µM [inhibitor, single point] and inconclusive: 50.1 µM [inhibitor, partial curve, poor fit] | – | – |
| CCOCCOC1CCN(C(=O)c2nn(C)c3ccccc23)CC1 | – | inactive: 0.907% | – |
| O=C(c1cncc(Br)c1)N1CCN(c2ccnc3ccnn23)CC1 | – | inactive: 3.18% | – |
| CCCc1noc(-c2cn(C3CCN(C(=O)c4ccc(C)c(F)c4)CC3)nn2)n1 | inconclusive: 63.1 µM [inhibitor, partial curve, poor fit] | – | – |
| COC(=O)N(C)Cc1cccc(N2CCN(C(=O)OC(C)(C)C)CC2)c1 | inconclusive: 44.7 µM [inhibitor, partial curve, poor fit] | – | – |
